Results from PubChem BioAssay AID445 (National Center for Advancing Translational Sciences (NCATS), 2006).
Among all 110,000 compounds or so, about 40 (0.04%) were called active. Inconclusive results, whose numbers are uncertain, are shown with a selection of clear calls. Calls come from the whole dose curve; as a rule, active = well fitted curve in the direction sought with a large enough effect in the signal ratio (not every such curve was filed as active); inconclusive = small, poorly fitted or top-dose-only effect, or a change in a side signal; inactive = flat fitted curve, though single readings scatter; the % refers to the signal ratio. Where the call is inconclusive, the potency comes from a doubtful curve fit.

Test: IkB Signaling;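 for IkBa stabilization activation: 0% = basal untreated cells and 100% = reference inhibitor full response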
Details: ABC-DLBCL IkBa-CBG/CBR dual luciferase ratio (green luciferase fused to IkBa over red control in OCI-Ly3 lymphoma cells), 4 h; IkBa stabilization activation: at 57.1 µM (top of the series), scaled: untreated 0%, proteasome inhibitor 100% unless noted
How it was run: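 In this assay, an IκBα–CBG68 fusion accumulates when IKK-driven degradation is blocked; native CBR normalizes for cell number. OCI-Ly3 cells were treated 4 h with compound and doxycycline, then green and red light read after Chroma-Glo addition.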
Potency is the fitted concentration of half-maximal effect.

SMILES	IkBa stabilization activation	Potency
Cc1ccc(C)c(Cn2c(=O)n(CCCC(=O)NCc3ccc4c(c3)OCO4)c(=O)c3sccc32)c1	inconclusive: 4.5% [signal inhibitor]	
CCNc1nc(NCC)nc(Oc2ccc(OCC)nn2)n1	inactive	
CCCSc1ncc(Cl)c(C(=O)N2CCN(c3ccc(OC)cc3)CC2)n1	inconclusive: 0.291% [signal inhibitor]	
Oc1ccc(-c2nc(-c3ccc(O)c(O)c3)cs2)cc1	inconclusive: -2.1% [signal inhibitor]	
CCC(C)c1ccc(OCC(=O)Nc2ccc(-c3nc4ncccc4o3)cc2)cc1 (stereo not drawn)	inactive	
COc1ccccc1N1CCN(C(=O)CSc2nc(-c3ccco3)cc(C(F)(F)F)n2)CC1	inconclusive: 2.92% [signal inhibitor]	
O=C(NCc1ccc(Cl)cc1Cl)c1cccc(N2CCCS2(=O)=O)c1	inconclusive: 4.58% [signal inhibitor]	
CCn1cc2nc(SCc3cccc(C(F)(F)F)c3)n(Cc3ccc(C)cc3)c(=O)c2n1	inactive	
CN[C@H](CC(=O)O)C(=O)O	inactive	
CCCN(CCC)S(=O)(=O)c1cccc(C(=O)Nc2ccc3c(c2)OCO3)c1	inconclusive: 2.23% [signal inhibitor]	
N#CC1=C(N)N2C(=C(C#N)C13CCN(Cc1ccccc1)CC3)Nc1ccccc12	inconclusive: 4.88% [signal inhibitor]	
c1ccc2[nH]c(CSc3nnc(-c4ccncc4)o3)nc2c1	inactive	
Cc1cc(C)n2nc(C(=O)Nc3ccccc3N3CCOCC3)nc2n1	inactive	
COc1ccccc1-n1c(=O)n(C)c2c(C(N)=O)nc(-c3cc(OC)c(OC)c(OC)c3)nc21	inactive	
COc1cc2c(cc1NC(=O)C(C)Oc1ccccc1)oc1ccccc12 (stereo not drawn)	inconclusive: 4.15% [signal inhibitor]	
Cc1cc(C)c2c(N)c(C(=O)Nc3ccccc3C(F)(F)F)sc2n1	inconclusive: 8.36% [signal inhibitor]	
CCCCCCC1CCC(C(=O)NC(C(=O)O)C(C)C)CC1 (stereo not drawn)	inconclusive: 1.15% [signal inhibitor]	
COc1ccc(C=Nc2c(O)ccc3ccccc23)cc1OC	inactive: -0.0313% [at 11.4 µM, scaled: untreated 0%, proteasome inhibitor 100%]	
O=C(CSc1oc(-c2ccco2)nc1S(=O)(=O)c1ccc(Cl)cc1)Nc1ccc(F)cc1	inconclusive: 2.85% [signal inhibitor]	
COc1ccc2c(Sc3ccc(Cl)cc3)c(C(=O)N3CCCCC3)[nH]c2c1	inconclusive: -0.76% [signal inhibitor]	
COc1ccc(N2CCN(CCCNC(=O)c3ccc4nc(N5CCCCC5)sc4c3)CC2)cc1	inconclusive: 1.55% [signal inhibitor]	
CC1(C)CC(N2CCN(c3ccccc3)CC2)=CC(=[N+]2CCCC2)C1	inconclusive: 3.09% [signal inhibitor]	
CCc1cccc(NC(=O)CCNS(=O)(=O)c2ccc3c(c2)CCN3C(C)=O)c1	inactive	

SMILES	IkBa stabilization activation	Potency
Cc1nn(-c2ccc(Cl)cc2)c2sc(C(=O)N3CCN(c4ccccn4)CC3)cc12	inactive	
Cc1ccc(CNC(=O)c2ccc(CS(=O)(=O)c3ccccc3C)o2)cc1	inconclusive: -1.26% [signal inhibitor]	
CCOCCN1CCN(c2c3c(nc4cc(-c5ccc(F)cc5)nn24)CCC3)CC1	inconclusive: 2.79% [signal inhibitor]	
COc1ccccc1NC(=O)Cn1c(=O)n(-c2ccc(C)cc2)c(=O)c2c1cnn2C	inconclusive: -2.34% [signal inhibitor]	
CCOc1ccc(NC(=O)c2oc3ccccc3c2NC(=O)c2cc3ccccc3o2)cc1	inconclusive: 4.65% [signal inhibitor]	
COc1cc(-c2noc(-c3cccs3)n2)cc(OC)c1OC	inactive	
O=C(Nc1ccc(Br)cc1)c1cccc(S(=O)(=O)N2CCc3ccccc32)c1	inconclusive: 10.5% [signal inhibitor]	
CCN1C(=O)c2cccc3c(S(=O)(=O)Nc4ccc(OC)cc4OC)ccc1c23	inconclusive: 12.1% [signal inhibitor]	
Cc1nc2c(c(C)nn2-c2ccccc2)c(C)c1CCC(=O)NCc1ccccc1	inconclusive: 2.37% [signal inhibitor]	
O=C(CSc1nnc(-c2ccco2)n1Cc1ccccc1)NC(=O)NCc1ccccc1	inconclusive: 1.36% [signal inhibitor]	
CCN1CCN(Cc2c(O)ccc3cc(-c4ccc(OC)cc4)c(=O)oc23)CC1	inactive	
COc1ccc(C)cc1Nc1nc(N)c2cc(OC)c(OC)cc2n1	inconclusive: 3.45% [signal inhibitor]	
CC(=O)c1cccc(NC(=O)c2nc(-c3ccccc3)n(-c3ccccc3C)n2)c1	inactive	
COc1ccc(CN2CCCN(CC(=O)Nc3ccc4c(c3)OCCO4)S2(=O)=O)cc1	inconclusive: 0.74% [signal inhibitor]	
O=C(c1ccccc1C(=O)N1CCN(c2ccc(F)cc2)CC1)N1CCN(c2ccc(F)cc2)CC1	inconclusive: 6.18% [signal inhibitor]	
COc1ccc(C2CC(=O)N(CC(=O)Nc3cccc(C)c3C)c3ccccc3S2)cc1OC (stereo not drawn)	inconclusive: 1.94% [signal inhibitor]	
Cc1ccc(C(=O)N2CCC(C(N)=O)CC2)cc1NC(=O)c1nsc2ccccc12	inactive	
CNc1ccccc1C(C)(C)c1cc(-c2ccco2)n[nH]1	inactive	
COc1ccc(N(CC(=O)NCCc2ccc(Cl)cc2)S(=O)(=O)c2c(C)nn(C)c2C)cc1	inconclusive: 0.282% [signal inhibitor]	
Cc1ccc(Sc2ccc(N3CCCC(C(=O)Nc4ccc(F)cc4F)C3)nn2)cc1 (stereo not drawn)	inconclusive: 7.89% [signal inhibitor]	
O=C(O)C1CC(c2ccccc2F)=NO1 (stereo not drawn)	inactive	
Cc1ccc(-c2noc(-c3nnn(CC(=O)Nc4cc(Cl)ccc4C)c3N)n2)cc1	inactive	
Cc1nn(C)c2c1c(C(F)(F)F)cc(=O)n2CC(=O)N1CCC(C)CC1	inconclusive: 0.671% [signal inhibitor]	

SMILES	IkBa stabilization activation	Potency
O=C(CSc1nnc(COc2cccc3cccnc23)o1)c1ccc(F)cc1	inconclusive: 2.31% [signal inhibitor]	
CCC(=O)N1CCc2cc(S(=O)(=O)NC(C(=O)Nc3cc(OC)cc(OC)c3)C(C)C)ccc21 (stereo not drawn)	inconclusive: -0.105% [signal inhibitor]	
Cn1cnc(S(=O)(=O)N2CCCC(C(=O)Nc3ccc(OC(F)(F)F)cc3)C2)c1 (stereo not drawn)	inconclusive: 2.6% [signal inhibitor]	
C[C@@]12C=CC(=O)C=C1CC[C@@H]1[C@@H]2[C@H](O)C[C@]2(C)[C@@H]1CC[C@]2(O)C(=O)CO	inconclusive: 17.7% [signal activator] [at 25.6 µM, scaled: untreated 0%, proteasome inhibitor 100%]	
CCCCNC(=O)CSc1nc2ccccc2c(=O)n1C1CCCC1	inactive	
Cc1c(Cl)ccc2sc(N3CCN(C(=O)CS(=O)(=O)c4ccccc4)CC3)nc12		inconclusive: 31.6 µM [signal inhibitor, partial curve]
O=C1CCCC/C1=C\Nc1ccccc1C(=O)O	inactive	
CCCN1CCN(CCCNC(=O)c2c(C)nn(-c3ccc(F)cc3)c2-n2cccc2)CC1	inconclusive: 0.468% [signal inhibitor]	
CCOc1ccc(CNC(=O)Cn2c(=O)c3cccn3c3ccccc32)cc1	inconclusive: 1.78% [signal inhibitor]	
N#CCCn1c2ccccc2c2nc3ccccc3nc21	inactive	
Cc1nnc(N2CCCC(C(=O)NCCc3ccccc3)C2)c2nn(-c3ccccc3)c(C)c12 (stereo not drawn)	inconclusive: -2.54% [signal inhibitor]	
Cc1ccn2cc(-c3ccc(C)c(NS(=O)(=O)c4ccc(Cl)cc4)c3)nc2c1	inconclusive: -0.0709% [signal inhibitor]	
Cc1cc(C)c(NC(=O)Cn2c(=O)n(Cc3ccc(C(=O)NCc4ccco4)cc3)c(=O)c3sccc32)c(C)c1		inconclusive: 6.31 µM [signal activator]
CN(C)CCNC(=O)c1ccc2c(c1)N(Cc1c(F)cccc1Cl)C(=O)c1ccccc1S2	inconclusive: 2.29% [signal inhibitor]	
CCOC(=O)Cn1c(=O)oc2cc(S(=O)(=O)N3CCN(c4cc(C)ccc4C)CC3)ccc21	inconclusive: 1.89% [signal inhibitor]	
c1ccc(CNc2ccnc(-c3ccc4c(c3)OCO4)n2)cc1	inactive: 1.41% [at 11.4 µM, scaled: untreated 0%, proteasome inhibitor 100%]	
CCOC(=O)c1ccc(NC(=O)CSc2cn(CC(=O)N3CCCC3)c3ccccc23)cc1	inconclusive: 0.766% [signal inhibitor]	
Cc1ccc(-c2nn3c(=O)cc(CN4CCN(C(=O)/C=C/c5ccccc5)CC4)nc3s2)cc1	inactive	
COC(=O)c1ccc2c(c1)N(CC(=O)Nc1ccc(OC)c(Cl)c1)C(=O)c1ccccc1S2	inconclusive: 2.72% [signal inhibitor]	
Cc1ccc(-n2nc3c(N4CCCC(C(=O)NCc5ccc(Cl)cc5)C4)nnc(C)c3c2C)cc1 (stereo not drawn)	inconclusive: -2.96% [signal inhibitor]	
O=C(CCS(=O)(=O)c1nc(-c2cccs2)cc(C(F)(F)F)n1)Nc1cc(Br)ccc1O		inconclusive: 39.8 µM [signal inhibitor, single point]
O=C(CSc1nnc(-c2ccc(Br)cc2)o1)Nc1cccc2ccccc12		inconclusive: 0.316 µM [signal inhibitor, full curve]
